From the supplement of paper PMC8728848
Some of the results follow.

Tests used:
Test in all cases: glycan array binding signal (z-score within array); higher = stronger binding
Conditions in all cases: glycan notation: IUPAC condensed, linker removed
[1] = biological target: Neu5Ac(a2-3)Gal(b1-3)[Fuc(a1-4)]GlcNAc
How it was run: (§1)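 The Consortium for Functional Glycomics database supplied 3228 glycan arrays, of which those lacking an available protein sequence were dropped. The binding signal, a within-array Z-score, was averaged across arrays of the same protein sequence and across linkers. Negative scores can be read as non-binding.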

[2] = biological target: Neu5Ac(a2-3)Gal(b1-3)[Fuc(a1-4)]GlcNAc(b1-3)Gal(b1-3)[Fuc(a1-4)]GlcNAc
How it was run: as §1

[3] = biological target: Neu5Ac(a2-3)Gal(b1-3)[Fuc(a1-4)]GlcNAc(b1-3)Gal(b1-4)[Fuc(a1-3)]GlcNAc
How it was run: as §1

[4] = biological target: Neu5Ac(a2-3)Gal(b1-3)[GlcNAc(b1-6)]GalNAc
How it was run: as §1

[5] = biological target: Neu5Ac(a2-3)Gal(b1-3)[Neu5Ac(a2-6)]GalNAc
How it was run: as §1

[6] = biological target: Neu5Ac(a2-3)Gal(b1-3)[Neu5Ac(a2-6)]GlcNAc(b1-3)[Fuc(a1-3)[Gal(b1-4)]GlcNAc(b1-6)]Gal(b1-4)Glc
How it was run: as §1

[7] = biological target: Neu5Ac(a2-3)Gal(b1-3)]Neu5Ac(a2-3)Gal(b1-4)]GlcNAc
How it was run: as §1

Neu5Ac(a2-3)Gal(b1-4)Glc = biological target: Neu5Ac(a2-3)Gal(b1-4)Glc
How it was run: as §1

[8] = biological target: Neu5Ac(a2-3)Gal(b1-4)GlcNAc
How it was run: as §1

[9] = biological target: Neu5Ac(a2-3)Gal(b1-4)GlcNAc(b1-2)Man
How it was run: as §1

[10] = biological target: Neu5Ac(a2-3)Gal(b1-4)GlcNAc(b1-2)Man(a1-3)[GlcNAc(b1-4)][Neu5Ac(a2-3)Gal(b1-4)GlcNAc(b1-2)Man(a1-6)]Man(b1-4)GlcNAc(b1-4)GlcNAc
How it was run: as §1

[11] = biological target: Neu5Ac(a2-3)Gal(b1-4)GlcNAc(b1-2)Man(a1-3)[Neu5Ac(a2-3)Gal(b1-4)GlcNAc(b1-2)Man(a1-6)]Man(b1-4)GlcNAc(b1-4)GlcNAc
How it was run: as §1

[12] = biological target: Neu5Ac(a2-3)Gal(b1-4)GlcNAc(b1-2)Man(a1-3)[Neu5Ac(a2-3)Gal(b1-4)GlcNAc(b1-2)Man(a1-6)]Man(b1-4)GlcNAc(b1-4)[Fuc(a1-6)]GlcNAc
How it was run: as §1

[13] = biological target: Neu5Ac(a2-3)Gal(b1-4)GlcNAc(b1-2)Man(a1-3)[Neu5Ac(a2-6)Gal(b1-4)GlcNAc(b1-2)Man(a1-6)]Man(b1-4)GlcNAc(b1-4)GlcNAc
How it was run: as §1

[14] = biological target: Neu5Ac(a2-3)Gal(b1-4)GlcNAc(b1-2)[Neu5Ac(a2-3)Gal(b1-4)GlcNAc(b1-4)]Man(a1-3)[GlcNAc(b1-4)][Neu5Ac(a2-3)Gal(b1-4)GlcNAc(b1-2)[Neu5Ac(a2-3)Gal(b1-4)GlcNAc(b1-6)]Man(a1-6)]Man(b1-4)GlcNAc(b1-4)GlcNAc
How it was run: as §1

[15] = biological target: Neu5Ac(a2-3)Gal(b1-4)GlcNAc(b1-2)[Neu5Ac(a2-3)Gal(b1-4)GlcNAc(b1-4)]Man(a1-3)[GlcNAc(b1-4)][Neu5Ac(a2-3)Gal(b1-4)GlcNAc(b1-4)Man(a1-6)]Man(b1-4)GlcNAc(b1-4)GlcNAc
How it was run: as §1

[16] = biological target: Neu5Ac(a2-3)Gal(b1-4)GlcNAc(b1-2)[Neu5Ac(a2-3)Gal(b1-4)GlcNAc(b1-6)]Man(a1-6)[Neu5Ac(a2-3)Gal(b1-4)GlcNAc(b1-2)Man(a1-3)]Man(b1-4)GlcNAc(b1-4)GlcNAc
How it was run: as §1

[17] = biological target: Neu5Ac(a2-3)Gal(b1-4)GlcNAc(b1-2)[Neu5Ac(a2-3)Gal(b1-4)GlcNAc(b1-6)]Man(a1-6)[Neu5Ac(a2-3)Gal(b1-4)GlcNAc(b1-2)Man(a1-3)][GlcNAc(b1-4)]Man(b1-4)GlcNAc(b1-4)GlcNAc
How it was run: as §1

[18] = biological target: Neu5Ac(a2-3)Gal(b1-4)GlcNAc(b1-3)Gal
How it was run: as §1

[19] = biological target: Neu5Ac(a2-3)Gal(b1-4)GlcNAc(b1-3)Gal(b1-3)GlcNAc
How it was run: as §1

[20] = biological target: Neu5Ac(a2-3)Gal(b1-4)GlcNAc(b1-3)Gal(b1-4)GlcNAc
How it was run: as §1

[21] = biological target: Neu5Ac(a2-3)Gal(b1-4)GlcNAc(b1-3)Gal(b1-4)GlcNAc(b1-2)Man(a1-3)[Neu5Ac(a2-3)Gal(b1-4)GlcNAc(b1-3)Gal(b1-4)GlcNAc(b1-2)Man(a1-6)]Man(b1-4)GlcNAc(b1-4)GlcNAc
How it was run: as §1

[22] = biological target: Neu5Ac(a2-3)Gal(b1-4)GlcNAc(b1-3)Gal(b1-4)GlcNAc(b1-3)Gal(b1-4)GlcNAc
How it was run: as §1

[23] = biological target: Neu5Ac(a2-3)Gal(b1-4)GlcNAc(b1-3)Gal(b1-4)GlcNAc(b1-3)Gal(b1-4)GlcNAc(b1-2)Man(a1-3)[Neu5Ac(a2-3)Gal(b1-4)GlcNAc(b1-3)Gal(b1-4)GlcNAc(b1-3)Gal(b1-4)GlcNAc(b1-2)Man(a1-6)]GalNAc
How it was run: as §1

[24] = biological target: Neu5Ac(a2-3)Gal(b1-4)GlcNAc(b1-3)Gal(b1-4)GlcNAc(b1-3)GalNAc
How it was run: as §1

[25] = biological target: Neu5Ac(a2-3)Gal(b1-4)GlcNAc(b1-3)Gal(b1-4)GlcNAc(b1-3)[Neu5Ac(a2-3)Gal(b1-4)GlcNAc(b1-3)Gal(b1-4)GlcNAc(b1-6)]GalNAc
How it was run: as §1

[26] = biological target: Neu5Ac(a2-3)Gal(b1-4)GlcNAc(b1-3)Gal(b1-4)GlcNAc(b1-6)[Gal(b1-3)]GalNAc
How it was run: as §1

[27] = biological target: Neu5Ac(a2-3)Gal(b1-4)GlcNAc(b1-3)Gal(b1-4)[Fuc(a1-3)]GlcNAc
How it was run: as §1

[28] = biological target: Neu5Ac(a2-3)Gal(b1-4)GlcNAc(b1-3)GalNAc
How it was run: as §1

[29] = biological target: Neu5Ac(a2-3)Gal(b1-4)GlcNAc(b1-3)[Neu5Ac(a2-3)Gal(b1-4)GlcNAc(b1-6)]GalNAc
How it was run: as §1

B1: PX15618B-bfa-464-25-464 (Bacteroides fragilis) (protein)
chain: DQEPPLYVNENDIFTSPTRIEATLNGLYAAIKNTGTKSLMGGKSYLVFDNRGDDVINISNNLVTLFNTYNMNVGITDAENADTWTYAYLAINKVNTFLQSLEGAREVAGENYDRYVQEAKFVRALAYYYLNNLYPTPYSVNPDAKSVPLRLTAEAGTENNNMPRSTVKQIYEHILSDLENISALDTEVNTYTGVTHATQAAANMLKMRVYMAMNEWDKAITAGELVTGYSLPEDVTLIYKAPYFSQESIFSLPMADTNIPNTQQSLAEYYYDGKIMLIDTKSGIMSKPDYSLATDKRIIAFKGEKDLLMKFTDAKTKLQWVPIFRYAETLLDLAECYANKAGGEATAKSLLKQVRGRSVDAATDPLNIDNLSGDALKEAIYNEKRLEFIGEGIRGIDIMRRGEHFIKVGENETINVGPSDEKYTWPIPQVELLLNKDINK
[1]
  glycan array binding signal (z-score): -0.454
[2]
  glycan array binding signal (z-score): -0.054
[3]
  glycan array binding signal (z-score): -0.069
[4]
  glycan array binding signal (z-score): -0.588
[5]
  glycan array binding signal (z-score): 0.363
[6]
  glycan array binding signal (z-score): 0.835
[7]
  glycan array binding signal (z-score): -0.545
Neu5Ac(a2-3)Gal(b1-4)Glc
  glycan array binding signal (z-score): 0.019
[8]
  glycan array binding signal (z-score): -0.082
[9]
  glycan array binding signal (z-score): -0.153
[10]
  glycan array binding signal (z-score): -0.355
[11]
  glycan array binding signal (z-score): 0.297
[12]
  glycan array binding signal (z-score): -0.2
[13]
  glycan array binding signal (z-score): -0.086
[14]
  glycan array binding signal (z-score): -0.927
[15]
  glycan array binding signal (z-score): 0.333
[16]
  glycan array binding signal (z-score): 0.705
[17]
  glycan array binding signal (z-score): -0.203
[18]
  glycan array binding signal (z-score): -0.438
[19]
  glycan array binding signal (z-score): -0.326
[20]
  glycan array binding signal (z-score): -0.253
[21]
  glycan array binding signal (z-score): -0.292
[22]
  glycan array binding signal (z-score): -0.223
[23]
  glycan array binding signal (z-score): 3.29
[24]
  glycan array binding signal (z-score): -0.439
[25]
  glycan array binding signal (z-score): 0.164
[26]
  glycan array binding signal (z-score): 0.194
[27]
  glycan array binding signal (z-score): -0.466
[28]
  glycan array binding signal (z-score): -0.321
[29]
  glycan array binding signal (z-score): -0.275
